Here are results for 42 molecules from ChEMBL document CHEMBL4888484, “Replenishing the malaria drug discovery pipeline: Screening and hit evaluation of the MMV Hit Generation Library 1 (HGL1) against asexual blood stage Plasmodium falciparum ,using a nano luciferase reporter read-out” (2022).

About 540 (0.36%) of roughly 150,000 compounds showed an effect of 50% or more. This is one part of the list.

One may read the % Inhibition as the drop in the measured response relative to a control, in per cent.

The test system of the experiment is Plasmodium falciparum. The experiment in a line: Primary screen in NF54 nanoGlo assay, in single point, at 2uM, 72h; a lower Z score goes with more inhibition. The experiment is classed as functional, Erythrocyte. The settings on record: timepoint 72 hour.
For `COCCOCC(=O)N1CC[C@H](OCc2ccccc2)C1`, the “% Inhibition” value is recorded as -18% and the Z score came to 2.04.

With `COc1cc(CN2C(=O)N[C@]3(CC(C)(C)OC3(C)C)C2=O)ccn1`, the “% Inhibition” value was found to be 4% and the Z score was -0.76.

As for `NC(=O)C[C@H](NCC(F)(F)F)C1CCCCC1`, the “% Inhibition” value is -2% and the Z score is reported as 0.28.

Turning to `CCCCN1CCn2nc(CCC(=O)N3CCC(O)CC3)cc2C1`, the “% Inhibition” value is recorded as 6% and the Z score is on record as -0.9.

In the case of `CN(C[C@H]1COCCO1)C(=O)c1ncccc1O`, the “% Inhibition” value worked out at 1% and the Z score is -0.16.

In the case of `Cc1cc2nc3n(c(=O)c2n1CC(=O)Nc1ccc2c(c1)OCCO2)CCCC3`, the “% Inhibition” value worked out at 3% and the Z score is -0.35.

Consider `COC(=O)[C@]1(C)CN(C(=O)NCc2ccc(O)c(OC)c2)C[C@H]1C`, for which the “% Inhibition” value is -7% and the Z score came to 1.27.

In the case of `Cn1cc(C(O)CC2CCCN2CC(=O)Nc2nccs2)cn1` (centres undefined), the “% Inhibition” value is listed as -1% and the Z score is on record as 0.21.

Take `Cc1csc(CNC(=O)Nc2ccccn2)n1`: the “% Inhibition” value is given as -3% and the Z score was determined as 0.59.

With `Cc1cc(S(=O)(=O)N2CCC[C@H]2c2ncccn2)c(C)o1`, the “% Inhibition” value is on record as 3% and the Z score is listed as -0.45.

As for `CCc1c(C)nn(CCNc2nnc(C3CC3)o2)c1C`, the “% Inhibition” value is -1% and the Z score was found to be 0.18.

As for `COc1cccc(N2C(=O)c3cc(Br)ccc3N[C@@H]2c2cc(Br)ccc2OCc2ccccc2)c1`, the “% Inhibition” value was found to be 26% and the Z score is reported as -2.98.

For the molecule `CC(=O)OCC(=O)Nc1ccc(S(N)(=O)=O)cc1`, the “% Inhibition” value was -10% and the Z score stood at 1.85.

As for `Cc1noc(C)c1CS(=O)(=O)CCn1cnc2ccccc2c1=O`, the “% Inhibition” value is on record as -9% and the Z score came to 0.9.

On to `Cn1c(=O)c2c(nc(OC(c3ccccc3)c3ccccc3)n2C)n(C)c1=O`, for which the “% Inhibition” value is -8% and the Z score was determined as 1.09.

Take `CCCC(C#N)(CCC)NC(=O)Cc1ccccc1OC`: the “% Inhibition” value stood at 3% and the Z score is on record as -0.4.

On to `Cc1cc(S(N)(=O)=O)c(C)cc1NCc1nc(C)c(C)s1`, for which the “% Inhibition” value is listed as -12% and the Z score is 2.37.

Take `COC(=O)[C@H]1Cc2[nH]ncc2N(C(=O)COc2ccc(OC)cc2)C1`: the “% Inhibition” value was 1% and the Z score is -0.18.

As to `Cc1noc(C)c1S(=O)(=O)NC[C@@H](c1ccsc1)n1cccn1`, the “% Inhibition” value is on record as -5% and the Z score is 1.01.

On to `CN(C)c1ccc(O[C@H]2CCN(C(=O)c3ccc(C#N)cc3)C2)nn1`, for which the “% Inhibition” value was -11% and the Z score stood at 1.25.

Take `NC(=O)c1cc(Br)c(N)c(Br)c1`: the “% Inhibition” value worked out at 8% and the Z score is recorded as -1.02.

For `C#CC(C)(C)OCC(O)CN1CC(C)OC(C)C1` (centres undefined), the “% Inhibition” value was -20% and the Z score is 1.81.

With `COc1cccc(-c2nnnn2[C@H]2CO[C@H]3[C@@H]2OC[C@@H]3NC(=O)c2ccc(C(F)(F)F)cc2)c1`, the “% Inhibition” value is recorded as -10% and the Z score is given as 1.54.

For the molecule `CC(C)c1nn(C)cc1-c1noc(C(=O)Nc2ccccc2)n1`, the “% Inhibition” value came out at 0% and the Z score is recorded as -0.06.

For the molecule `CCCNC(=O)N1CCC[C@](c2nnnn2C2CCCC2)(N(C)C)C1`, the “% Inhibition” value is listed as -13% and the Z score was found to be 1.76.

`CCN1CCN(CC(=O)N2CC(COC)(c3ccccc3)C2)CC1`: the “% Inhibition” value is reported as -3% and the Z score came to 0.55.

Take `CCN1C[C@@H](C(=O)N2CCN(c3ncccn3)CC2)CCC1=O`: the “% Inhibition” value is on record as 2% and the Z score was -0.21.

`NC(=O)c1cnc(NC(=O)[C@@H]2CCCO2)s1`: the “% Inhibition” value is on record as -3% and the Z score was 0.66.

Take `O=C(CCCc1cn[nH]c1)N1CCC(Cn2ccnc2)CC1`: the “% Inhibition” value is -2% and the Z score worked out at 0.27.

As for `O=C(Cc1nnc(-c2ccc(Br)cc2)o1)N1CCN(c2ccccc2)CC1`, the “% Inhibition” value is recorded as -5% and the Z score is reported as 0.73.

`COC(=O)[C@@H]1C[C@@H](O)CN1c1ccc(C(F)(F)F)cn1`: the “% Inhibition” value is 3% and the Z score is on record as -0.39.

On to `Cc1ncc(C(=O)N(C)CCc2ccc(Cl)cc2)c(C2CC2)n1`, for which the “% Inhibition” value was -1% and the Z score is listed as 0.18.

For the molecule `Cc1csc(N2CCC(C(=O)N3CCCC(C)C3CN)CC2)n1` (centres undefined), the “% Inhibition” value is reported as -3% and the Z score is on record as 0.37.

As for `COc1ccc(OC)c(S(=O)(=O)N2CCC[C@H]2C(=O)N2CCc3ccccc3C2)c1`, the “% Inhibition” value is recorded as -8% and the Z score was determined as 1.29.

On to `COc1ccc(S(=O)(=O)N[C@H]2CCCc3cn(CC(=O)N(C)C)nc32)cc1`, for which the “% Inhibition” value is given as 7% and the Z score is -0.93.

`Cc1ccnc(-n2cc(S(=O)(=O)NC(=O)c3c(C4CC4)cnn3C)cn2)c1`: the “% Inhibition” value was -6% and the Z score was 0.85.

On to `CC(C)(C)c1ncc(C(=O)Nc2cccc(CCC(=O)O)c2)cn1`, for which the “% Inhibition” value is given as -1% and the Z score is listed as 0.08.

On to `Cc1nc(N2CCCC2)nc(C)c1NC(=O)c1ccccn1`, for which the “% Inhibition” value amounted to 3% and the Z score was -0.48.

Take `CC(NC(=O)C1CCCC1)C(=O)N1C[C@@H](F)C[C@H]1CO` (some centres undefined): the “% Inhibition” value was -11% and the Z score turned out to be 1.49.

In the case of `O=C(Nc1ccc(OCc2ccco2)cc1)N1C[C@@H]2[C@H](C1)[C@H]1CC[C@@H]2O1`, the “% Inhibition” value is given as -21% and the Z score turned out to be 3.23.

On to `Cc1nc(Nc2ccc3c(c2)OCCO3)c2c(C)noc2n1`, for which the “% Inhibition” value is reported as -11% and the Z score is on record as 1.33.

For the molecule `Cc1ccc(CN(Cc2ccc(F)cc2)C(=O)CN(C[C@H]2CCCO2)C(=O)Nc2ccc(C#N)cc2)o1`, the “% Inhibition” value is reported as -16% and the Z score is given as 1.57.
